Test results published in the supplement of paper PMC3334620.
Over roughly 33,000 sequences, “E-score (-0.5 to 0.5)” has its median near -0.017; the highest 2% begin near 0.3. The list shows a part of the results.

Molecular target: T1, Sut1 (UniProt P53032)
T1 sequence: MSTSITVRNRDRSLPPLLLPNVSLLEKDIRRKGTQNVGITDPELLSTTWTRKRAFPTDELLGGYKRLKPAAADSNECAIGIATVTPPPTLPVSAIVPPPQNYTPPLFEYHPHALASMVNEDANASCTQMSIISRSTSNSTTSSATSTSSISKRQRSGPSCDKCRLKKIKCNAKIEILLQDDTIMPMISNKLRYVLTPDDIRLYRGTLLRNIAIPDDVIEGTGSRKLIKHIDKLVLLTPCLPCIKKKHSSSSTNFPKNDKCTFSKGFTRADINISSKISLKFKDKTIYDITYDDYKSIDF
Assay: PBM E-score (8-mer binding enrichment) (E-score (-0.5 to 0.5)); higher = stronger / more preferred TF binding; most listed sequences are background and not binding sites
Details: protein concentration: 200 nM; construct: GST-full length
Outline: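 Universal all-10-mer Agilent arrays, double-stranded by primer extension on fresh or once-stripped slides, were probed with about 100-200 nM GST-tagged yeast transcription factors made by PURExpress. Fluorescent anti-GST detected bound protein, and masliner normalised the scans. E-scores from the Universal PBM Analysis Suite were given to each ungapped eight-base word pooled with its reverse complement.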

Sequence	PBM E-score
GACAAGGC	-0.17
ACGGGAAA	0.0626
AGGGGGTG	-0.286
ATAGGTCA	0.0286
ACAATGAC	-0.0412
GAATTTAC	0.0497
CGCCTGAA	-0.0478
CAGACTGA	-0.0426
CTATTTCC	0.166
ACATACGT	-0.0114
CACACCCC	-0.157
ACCCGGCG	-0.163
TATATACA	0.316
AGCAGACT	-0.0252
GGTACGTA	-0.182
CAAGGCAA	-0.0339
ACCCAAAA	-0.0255
GCCTTCGC	-0.122
CGTGCGAA	-0.0471
AGGGCGAT	-0.29
CCATATCC	-0.0916
AACTTCTT	0.131
AACATAGA	0.0101
CATGTGAC	-0.0811
ACCGCAGG	-0.0326

Sequence	PBM E-score
CTTAACCA	0.0986
ATGAAGGC	0.079
AGATGACC	-0.052
CGCAAGCA	0.0173
CGCCCTCA	-0.206
ACATGTAT	0.239
TAAACGAA	0.263
ACGCGAAT	-0.0996
GGACTAGA	0.183
GCACCTAA	-0.0101
AGTCGGTG	-0.159
AATGCGAG	0.112
CACGATGG	-0.0935
TATTAACA	0.233
AGAAGTGG	-0.0491
AACAATCT	0.0933
ACCATTAT	0.00269
CGCGTCGC	-0.0356
AAGGTAAA	0.152
TGACATAA	0.165
ATCCTGGC	-0.149
AATTCAGC	-0.0828
AGCACGAC	-0.154
AATTTTGT	0.27
CACAGTCC	0.0564

Sequence	PBM E-score
AGCGGCTG	-0.173
GAAAGGGA	-0.0788
GCACTAAC	7e-05
GAACTCAA	-0.0301
CTGTGCTC	-0.0152
CGGCAGAC	-0.143
AGCGGTTG	-0.136
ACCAACGG	0.0195
ATGGTGCC	-0.227
AGCAGGGG	-0.175
AGGCGTCG	-0.205
CAGTTATG	0.0135
AGTATGCG	-0.112
CCCCGCCA	0.0248
AGACTTAT	0.0322
GCACCCGA	-0.149
AAATAATA	0.311
AACGTGCT	-0.167
TGTGCTAA	0.126
GGACTTTA	0.347
AACTCTCG	0.146
AACCTTAG	0.00759
GGACCCGA	-0.0142
GTGACAAA	-0.0491
TCGTGAAA	-0.115

Sequence	PBM E-score
TAAATACA	0.249
CGCGCAGA	0.0428
ATGGTGGG	-0.249
TAATGAAA	0.154
TACTTACA	0.115
AGGACATC	0.0505
CAGGCGAG	-0.24
AACTCCTC	0.0852
GCGGCATA	-0.18
ATCGGAAA	0.302
GCCTACCC	-0.252
GTTCAAGA	0.034
ATGGAGCA	-0.0739
CCGCCGTC	-0.153
GCCCTACC	-0.0916
CACACTAG	-0.06
ACGACGTG	-0.136
TGACAGCA	-0.0132
ACGAATGA	0.0196
GGCTACAA	-0.0173
CGACTTGA	0.06
ACCAGTGA	-0.0679
CTAGCCTC	-0.268
GAATTGAA	0.176
CCACTGTA	0.00351

Sequence	PBM E-score
AATCGGAC	0.338
AAGTCCAC	-0.139
GCGTATCA	0.024
CAGCGGCA	-0.249
GGCGTGAA	-0.145
ACTGAGCG	-0.248
CCTCCACG	-0.152
ATTTGCGA	0.173
CGGGTAGA	-0.182
AAGGGGAG	-0.297
CATCACCA	0.00625
ACCTTTTC	-0.0568
TCTAAAAA	0.171
CTGCAGTA	-0.124
TGAAAGAA	0.273
CCCGCCGC	0.101
GTTTGACA	0.0837
ACGCACGT	-0.151
ACGATAGA	-0.193
CCATGTTC	-0.134
AGATCCGG	0.182
GACGCGAA	-0.122
AAAAGAAT	0.249
CGCGTACC	0.0139
TACGACAA	0.151

Sequence	PBM E-score
CTACAGTC	-0.0316
ATCGCGGA	0.129
GTGCGAAC	-0.0608
AGCCTTTA	0.0463
ACAGGTAT	0.0961
AGAAGATG	0.027
ACCACTCC	0.17
ACATAACG	0.08
CCTTTATA	0.0454
CCCCGTGC	0.0476
ATTGCAGG	0.0125
TTTACAAA	0.123
AGATGGTG	-0.187
ATTGAAAT	0.311
ATCATCAG	0.0405
TATGTAAA	0.285
CCGGCGCG	-0.125
CGGTTGGA	-0.114
AACAAGCA	0.0347
CCGCTTCG	-0.114
AGTATCAA	0.194
CAACGCGA	-0.0162
GTTGGCCA	-0.0893
GAACGAGA	0.0625
ACCGCGCA	-0.018

Sequence	PBM E-score
ACGGACGC	0.0681
AAACGTCA	-0.0156
CCACTACG	-0.0483
GGTGGGCA	-0.255
GAGACAGA	0.104
ATTCGGTC	0.0799
CCACGACA	-0.0467
CAGGGAGG	-0.345
CTGTTATC	0.0957
ACGCTGGA	-0.00451
TAGTTGCA	0.0448
CGTCAACC	0.0396
GATATTTA	0.262
GCGGGTGA	-0.128
GTTTTAAA	0.296
CGTGCGGC	-0.0987
CAGAAGCG	0.0442
ACCGTAGC	-0.123
GTGTCCAA	0.0338
GTAATTAC	0.214
GCCGCAGC	-0.118
ACCTCATG	-0.261
